# Test results reported in PubChem BioAssay (Tox21).
# Values joined by “and” are separate entries in the source; they are usually repeats but may differ in a detail not shown here. Equal entries are not always repeated. The shares of active, inactive and inconclusive entries below differ from those in the screen. For some assays here: Potencies beside an inconclusive call are fits to weak or partial responses and may not hold up. Where a structure was tested more than once in an assay, its records may differ in their call. Active and inactive are the calls of the source. Unless noted, calls come from the whole dose curve; as a rule, active = well fitted curve in the direction sought with a large enough effect in the repeat runs; inconclusive = weak or mixed curves; inactive = no such curve, though single readings can be large; an effect the other way counts as inactive or inconclusive.
# Legend:
# [1] = qHTS assay for small molecule agonists of the p53 signaling pathway (AID 651631; calls by dose curve; note: nearly all actives have a fitted effect of over 15% in size; note: potency is the fitted concentration of half-maximal effect; for activation: % is set by controls: 0 for no effect and ±100 for the full control effect); conditions: HCT-116 p53RE-bla reporter, beta-lactamase FRET ratio, 16 h; activation: at 73.3 µM (top of the series) unless noted
# Method in brief: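 Agonist mode screen using a stably integrated beta-lactamase gene under p53 response elements in HCT-116 cells. Compound exposure lasts 16 h at 37 °C; fluorescence intensity is measured following 2 h FRET substrate loading.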
# [2] = qHTS RealTime-Glo MT Cell Viability Assay in HEK293 cells - 32 hour (AID 1224868); conditions: RealTime-Glo luminescence; series mostly up to 76.8 µM; note: potency is the fitted concentration of half-maximal effect; nearly all actives have a fitted effect of over 50% in size
# Method in brief: (§1)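 Homogeneous bioluminescent viability format in HEK293 cells (600 cells/well). Following 5 h at 37 C/5% CO2, 23 nL compound was pintooled; the signal was measured repeatedly during 40 h incubation.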
# [3] = qHTS RealTime-Glo MT Cell Viability Assay in HEK293 cells - 16 hour (AID 1224872); conditions: RealTime-Glo luminescence; series mostly up to 76.8 µM; note: potency is the fitted concentration of half-maximal effect; nearly all actives have a fitted effect of over 50% in size
# Method in brief: as §1
# [4] = target: Cytochrome P450 2C19 (Homo sapiens) (UniProt P33261); assay: Cytochrome P450 Family 2 Subfamily C Member 19 (CYP2C19) small molecule antagonists: luciferase reporter qHTS assay (AID 1671197); conditions: P450-Glo CYP2C19 enzyme, luciferin luminescence, 1 h; series mostly up to 115 µM; note: nearly all actives have a fitted effect of over 65% in size; note: potency is the fitted concentration of half-maximal effect
# Method in brief: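 Relative luminescence units recorded 20 min after the detection reagent stopped a 1 h, 37C CYP2C19 reaction on proluciferin substrate, which was started by NADPH regeneration following 10 min room-temperature compound preincubation; ketoconazole positive control.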
# [5] = qHTS assay to identify small molecule antagonists of the estrogen receptor alpha (ER-alpha) signaling pathway - cell viability counter screen (AID 743074; calls by dose curve;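 note: HEK293 cells carrying ER-alpha-UAS-bla reporter stimulated with 17beta-estradiol; nearly all actives have a fitted effect of over 45% in size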; note: potency is the fitted concentration of half-maximal effect); conditions: ERalpha-bla HEK293 viability, CellTiter-Glo luminescence, 18 h; series mostly up to 69.4 µM
# [6] = qHTS assay to identify small molecule antagonists of the peroxisome proliferator-activated receptor delta (PPARd) signaling pathway - cell viability counter screen (AID 743213); conditions: PPARd-bla HEK293H viability, CellTiter-Glo luminescence, 17 h; viability change, negative = cytotoxic: at 62 µM (top of the series) unless noted; note: nearly all actives have a fitted effect of over 50% in size; note: potency is the fitted concentration of half-maximal effect
# Method in brief: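 HEK293H cells with the PPARd UAS-bla reporter, co-treated 17 h at 37 C with compounds and L165041 (300 nM final), were lysed with CellTiter-Glo. Luminescence indicated viable cell content.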
# [7] = target: Peroxisome proliferator-activated receptor delta (Homo sapiens) (UniProt Q03181); assay: qHTS assay to identify small molecule antagonists of the peroxisome proliferator-activated receptor delta (PPARd) signaling pathway (AID 743215; active = well fitted inhibition curve with a large enough effect in the signal ratio in the repeat runs, not every such curve was filed as active; inconclusive = weak or mixed curves, or effect the other way; inactive = no such curve, though single readings can be large or run the other way; the % refers to the signal ratio;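 note: cells stimulated with agonist L165041 at 300 nM final during compound exposure; % is set by controls: 0 for no effect and ±100 for the full control effect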); conditions: HEK293H PPARd-UAS-bla, beta-lactamase FRET ratio, antagonist, 17 h; ratio activity, negative = inhibition: at 62 µM (top of the series) unless noted
# Method in brief: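 HEK293H UAS-bla, PPARd; agonist L165041 300 nM final with cpd in DMSO; 37 C 17 h; FRET substrate, RT 2 h; fluorescence intensity.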
# [8] = qHTS assay to identify small molecule agonists of the vitamin D receptor (VDR) signaling pathway - cell viability counter screen (AID 743224); conditions: VDR-bla HEK293T viability, CellTiter-Glo luminescence, 16 h; series mostly up to 62.6 µM; note: nearly all actives have a fitted effect of over 50% in size; note: potency is the fitted concentration of half-maximal effect
# Method in brief: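 Plated VDR-bla cells (4 h, 37C) received compound, incubated 16 h, then LiveBLAzer substrate 2 h RT; CellTiter-Glo added afterwards, luminescence read at 30 min.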
# [9] = qHTS assay to identify small molecule agonists of the retinoic acid receptor (RAR) signaling pathway (AID 1159553); conditions: C3RL4 RARE luciferase reporter, agonist, 6 h; activation: at 73.3 µM (top of the series) unless noted; note: potency is the fitted concentration of half-maximal effect
# Method in brief: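 Reporter readout comes from luciferase under RARE control in C3RL4 cells; compound exposure lasts 6 hr at 37 C in 5% CO2, and luminescence is recorded following a 30 min room-temperature incubation with reagent.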
# [10] = qHTS assay to identify small molecule agonists of H2AX - cell viability counter screen (AID 1224847; calls by dose curve; note: nearly all actives have a fitted effect of over 30% in size; note: potency is the fitted concentration of half-maximal effect; for activity change, negative = cytotoxicity: top concentration of the series differs between compounds; % is set by controls: 0 for no effect and ±100 for the full control effect); conditions: CHO-K1 viability, CellTiter-Glo luminescence, 3 h; series mostly up to 154 µM
# Method in brief: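 Cytotoxicity counter screen in wild-type CHO-K1 cells: a 3 hr compound treatment at 37C across 15 concentrations, followed by CellTiter-Glo luminescence to gauge viable cells.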
# [11] = target: Estrogen receptor beta (Homo sapiens) (UniProt Q92731); assay: qHTS assay to identify small molecule agonists of the estrogen receptor beta (ER-beta) signaling pathway (AID 1259377; active = well fitted activation curve with a large enough effect in the signal ratio in the repeat runs, not every such curve was filed as active; inconclusive = weak or mixed curves, or effect the other way; the % refers to the signal ratio; note: potency is the fitted concentration of half-maximal effect); conditions: ER-beta-UAS-bla HEK293T, beta-lactamase FRET ratio, 16 h; activation: at 92.4 µM (top of the series) unless noted
# Method in brief: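 Agonist mode cell assay in GripTite HEK293T cells expressing an ER-beta fusion that drives beta-lactamase from an Upstream Activator Sequence; 16 hr compound exposure at 37C, then 2 h LiveBLAzer B/G FRET substrate at room temperature, fluorescence read-out.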
# [12] = target: Nuclear receptor subfamily 1 group I member 2 (Homo sapiens) (UniProt O75469); assay: Human pregnane X receptor (PXR) small molecule agonists, qHTS assay (AID 1346982); conditions: PXR-Luc HepG2, CYP3A4 luciferase reporter, 24 h; series mostly up to 92.4 µM; note: potency is the fitted concentration of half-maximal effect; nearly all actives have a fitted effect of over 35% in size
# Method in brief: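 Compound-induced hPXR transactivation of a CYP3A4 luciferase reporter was scored in HepG2 PXR-Luc cells over 24 hr at 37 C, 5% CO2, by luminescence.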
# [13] = qHTS assay to identify small molecule antagonists of the vitamin D receptor (VDR) signaling pathway - cell viability counter screen (AID 743225); conditions: VDR-bla HEK293T viability, CellTiter-Glo luminescence, 16 h; viability change, negative = cytotoxic: at 61 µM (top of the series) unless noted; note: nearly all actives have a fitted effect of over 50% in size; note: potency is the fitted concentration of half-maximal effect; for viability change, negative = cytotoxic: % is set by controls: 0 for no effect and ±100 for the full control effect
# Method in brief: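 HEK293T VDR-bla; cpd + 1a,25-(OH)2D3 3 nM final, 16 h 37C/5% CO2; B/G FRET substrate 2 h RT; then CellTiter-Glo 30 min RT, luminescence.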
# [14] = qHTS assay for identifying genotoxic compounds that show differential cytotoxicity against isogenic chicken DT40 cell lines with known DNA damage response pathways - wild type cell line (AID 743012); conditions: DT40 wild type chicken cells viability, CellTiter-Glo, 40 h; activity change, negative = cytotoxicity: at 68.4 µM (top of the series) unless noted; note: nearly all actives have a fitted effect of over 60% in size; note: potency is the fitted concentration of half-maximal effect
# Method in brief: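 First, wild type DT40 cells were plated at 300 per well and equilibrated about 0.5 h at 37 C/5% CO2. Next, compounds in DMSO were added and exposure lasted 40 h. Finally, CellTiter-Glo was added for 30 min at room temperature and luminescence recorded.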
# [15] = qHTS assay to identify small molecule antagonists of the estrogen related receptor (ERR) signaling pathway from Tox21 library - cell viability counter screen (AID 1224834); conditions: ERR reporter cells viability, CellTiter-Fluor, 17.5 h; series mostly up to 92.4 µM; note: nearly all actives have a fitted effect of over 30% in size; note: potency is the fitted concentration of half-maximal effect
# Method in brief: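 After 17.5 h of compound exposure at 37 C, ERR cells are incubated with CellTiter-Fluor for 30 min and fluorescence intensity serves as the viability measure.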
# [16] = target: Thyrotropin receptor (Homo sapiens) (UniProt P16473); assay: qHTS assay to identify small molecule agonists of the thyroid stimulating hormone receptor (TSHR) signaling pathway (AID 1224843; calls by dose curve; note: potency is the fitted concentration of half-maximal effect; nearly all actives have a fitted effect of over 45% in size); conditions: TSHR-HEK293 cells, cAMP HTRF, agonist mode, 30 min; activation: at 92.4 µM (top of the series) unless noted
# Method in brief: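 Screening of the Tox21 10K collection used HEK293 cells engineered with TSHR at 800 cells per well. After a 30-min room-temperature compound exposure, HTRF cAMP reagents were added and fluorescence recorded 1 h later.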
# [17] = qHTS RealTime-Glo MT Cell Viability Assay in HEK293 cells - 24 hour (AID 1224886); conditions: RealTime-Glo luminescence; series mostly up to 76.8 µM; note: nearly all actives have a fitted effect of over 50% in size; note: potency is the fitted concentration of half-maximal effect
# Method in brief: as §1
# [18] = Caspase-3/7 induction in CHO-K1 cells by small molecules, qHTS cell viability counter screen (AID 1346979); conditions: CellTiter-Fluor fluorescence, 17 h; series mostly up to 92.4 µM; note: potency is the fitted concentration of half-maximal effect; nearly all actives have a fitted effect of over 35% in size
# Method in brief: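 Cytotoxicity counter screen run in parallel with the caspase-3/7 assay: CHO-K1 cells, 16hr compound treatment at 37C, then CellTiter-Fluor for 1hr before fluorescence reading.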
# [19] = qHTS assay to identify small molecule agonists of the RXR signaling pathway - cell viability counter screen (AID 1159529); conditions: RXR-alpha-bla HEK293T viability, CellTiter-Glo, 16 h; series mostly up to 76.8 µM
# Method in brief: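 Steps: seed RXR-alpha-UAS-bla HEK 293T cells in assay medium containing 2% charcoal-stripped FBS; incubate 5 hr; add compounds in DMSO; incubate 16 hr at 37 C; after the bla read, add CellTiter-Glo and read luminescence at 30 min.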
# [20] = target: Estrogen receptor (Homo sapiens) (UniProt P03372); assay: qHTS assay to identify small molecule agonists of the estrogen receptor alpha (ER-alpha) signaling pathway using the BG1 cell line (AID 743079); conditions: BG1Luc4E2 cells, ERE-luciferase agonist, 22 h; activation: at 70.3 µM (top of the series) unless noted; note: % is set by controls: 0 for no effect and ±100 for the full control effect; nearly all actives have a fitted effect of over 20% in size
# Tags give direction and shape of the fitted curve or compound fluorescence and quenching.
# UniProt O75469, sequence (O75469 whole entry, looked up): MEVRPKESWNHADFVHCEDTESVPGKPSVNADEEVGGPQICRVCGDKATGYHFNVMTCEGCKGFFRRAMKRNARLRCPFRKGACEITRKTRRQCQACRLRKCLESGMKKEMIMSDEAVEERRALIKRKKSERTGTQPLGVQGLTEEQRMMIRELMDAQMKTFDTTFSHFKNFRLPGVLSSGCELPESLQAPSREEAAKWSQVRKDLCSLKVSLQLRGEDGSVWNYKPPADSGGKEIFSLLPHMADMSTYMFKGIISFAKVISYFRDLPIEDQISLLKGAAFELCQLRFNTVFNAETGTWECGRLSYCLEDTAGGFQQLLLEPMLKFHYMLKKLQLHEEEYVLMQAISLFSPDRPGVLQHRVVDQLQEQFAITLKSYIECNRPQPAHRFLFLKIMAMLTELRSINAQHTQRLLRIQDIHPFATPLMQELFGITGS
# UniProt P33261, sequence (P33261 whole entry, looked up): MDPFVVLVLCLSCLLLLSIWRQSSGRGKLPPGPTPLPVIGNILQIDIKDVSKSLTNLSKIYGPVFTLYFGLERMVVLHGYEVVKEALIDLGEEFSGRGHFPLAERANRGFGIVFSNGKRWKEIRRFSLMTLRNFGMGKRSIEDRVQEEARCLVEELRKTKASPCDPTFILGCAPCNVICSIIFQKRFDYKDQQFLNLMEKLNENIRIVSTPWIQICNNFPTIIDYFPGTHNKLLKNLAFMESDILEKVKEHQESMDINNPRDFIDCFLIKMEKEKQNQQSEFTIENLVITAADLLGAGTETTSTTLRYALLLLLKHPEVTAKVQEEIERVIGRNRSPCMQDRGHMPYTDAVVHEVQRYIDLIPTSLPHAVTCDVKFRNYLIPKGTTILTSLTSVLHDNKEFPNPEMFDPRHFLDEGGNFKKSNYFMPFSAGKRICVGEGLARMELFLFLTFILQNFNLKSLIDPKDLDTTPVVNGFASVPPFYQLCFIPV
# UniProt P03372, sequence (P03372 whole entry, looked up): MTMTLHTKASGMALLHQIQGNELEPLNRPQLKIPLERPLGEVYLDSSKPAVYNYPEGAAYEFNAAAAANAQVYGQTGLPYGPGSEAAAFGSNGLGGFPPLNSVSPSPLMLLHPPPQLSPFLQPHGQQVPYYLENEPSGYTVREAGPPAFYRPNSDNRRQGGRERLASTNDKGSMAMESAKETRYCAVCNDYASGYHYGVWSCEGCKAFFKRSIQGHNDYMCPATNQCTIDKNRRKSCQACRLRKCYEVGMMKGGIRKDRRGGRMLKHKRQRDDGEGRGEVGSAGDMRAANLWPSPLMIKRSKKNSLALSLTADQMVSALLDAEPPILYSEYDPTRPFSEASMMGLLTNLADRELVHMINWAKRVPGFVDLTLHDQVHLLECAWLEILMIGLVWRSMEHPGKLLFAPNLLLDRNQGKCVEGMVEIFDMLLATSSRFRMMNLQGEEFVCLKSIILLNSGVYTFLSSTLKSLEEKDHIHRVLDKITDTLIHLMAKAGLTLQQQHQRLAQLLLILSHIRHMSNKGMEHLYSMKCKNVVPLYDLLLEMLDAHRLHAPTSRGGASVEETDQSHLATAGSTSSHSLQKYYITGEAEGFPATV
# UniProt Q92731, sequence (Q92731 whole entry, looked up, the tested form may be a part): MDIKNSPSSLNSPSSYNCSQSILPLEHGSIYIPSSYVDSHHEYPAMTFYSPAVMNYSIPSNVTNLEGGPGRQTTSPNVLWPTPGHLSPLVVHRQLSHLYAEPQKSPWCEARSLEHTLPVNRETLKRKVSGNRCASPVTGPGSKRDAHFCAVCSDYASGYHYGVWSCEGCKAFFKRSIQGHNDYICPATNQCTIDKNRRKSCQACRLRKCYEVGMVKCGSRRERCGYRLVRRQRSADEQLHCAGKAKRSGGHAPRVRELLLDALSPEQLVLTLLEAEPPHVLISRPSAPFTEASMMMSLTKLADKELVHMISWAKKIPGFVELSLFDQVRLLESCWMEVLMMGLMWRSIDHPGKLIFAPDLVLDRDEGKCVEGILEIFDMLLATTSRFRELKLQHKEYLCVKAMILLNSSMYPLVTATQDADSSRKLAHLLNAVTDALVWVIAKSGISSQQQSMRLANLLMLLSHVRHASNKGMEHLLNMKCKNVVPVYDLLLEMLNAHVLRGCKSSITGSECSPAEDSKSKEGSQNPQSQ
# UniProt Q03181, sequence (Q03181 whole entry, looked up): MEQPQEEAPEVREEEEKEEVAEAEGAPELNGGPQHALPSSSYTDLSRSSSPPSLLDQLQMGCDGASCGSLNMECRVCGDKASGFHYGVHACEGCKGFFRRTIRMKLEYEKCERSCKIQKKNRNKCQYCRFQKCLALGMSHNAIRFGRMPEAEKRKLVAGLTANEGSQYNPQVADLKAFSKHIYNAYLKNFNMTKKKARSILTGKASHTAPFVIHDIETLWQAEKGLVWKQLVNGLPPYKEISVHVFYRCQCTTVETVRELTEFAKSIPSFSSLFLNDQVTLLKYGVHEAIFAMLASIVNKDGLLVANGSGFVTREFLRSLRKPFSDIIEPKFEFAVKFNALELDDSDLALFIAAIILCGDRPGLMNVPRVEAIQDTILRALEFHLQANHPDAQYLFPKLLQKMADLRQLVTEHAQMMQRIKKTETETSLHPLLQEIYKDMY
# UniProt P16473, sequence (P16473 whole entry, looked up): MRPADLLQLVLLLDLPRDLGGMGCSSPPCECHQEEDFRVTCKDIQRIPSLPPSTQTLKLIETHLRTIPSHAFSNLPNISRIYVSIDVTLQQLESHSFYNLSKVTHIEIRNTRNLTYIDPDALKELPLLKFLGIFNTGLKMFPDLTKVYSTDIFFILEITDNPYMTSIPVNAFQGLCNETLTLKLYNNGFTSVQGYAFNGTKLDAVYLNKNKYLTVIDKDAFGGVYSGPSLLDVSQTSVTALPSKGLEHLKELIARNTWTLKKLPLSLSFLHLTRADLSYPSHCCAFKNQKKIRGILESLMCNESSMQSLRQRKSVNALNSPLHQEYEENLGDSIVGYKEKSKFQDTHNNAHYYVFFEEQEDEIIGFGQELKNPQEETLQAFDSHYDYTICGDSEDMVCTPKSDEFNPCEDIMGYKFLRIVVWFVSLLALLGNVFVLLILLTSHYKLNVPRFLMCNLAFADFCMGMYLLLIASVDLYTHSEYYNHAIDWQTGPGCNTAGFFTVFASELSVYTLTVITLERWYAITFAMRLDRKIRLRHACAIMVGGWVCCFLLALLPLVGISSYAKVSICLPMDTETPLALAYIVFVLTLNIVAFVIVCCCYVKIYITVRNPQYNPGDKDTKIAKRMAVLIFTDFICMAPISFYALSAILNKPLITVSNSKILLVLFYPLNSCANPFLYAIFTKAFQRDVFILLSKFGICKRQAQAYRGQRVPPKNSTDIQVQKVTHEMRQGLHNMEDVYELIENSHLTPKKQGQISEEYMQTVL
compound,measurement,setting,value
C1CC2OC2CC1C1CO1 (stereo not drawn),Potency,[1],"inconclusive: 0.969 µM [falling, single point]"
same,activation,[1],inconclusive: 6.45%
same,Potency,[2],"inconclusive: 21.9 µM [rising, single point]"
same,Potency,[3],"inconclusive: 21.9 µM [rising, single point]"
same,Potency,[4],"inconclusive: 79.6 µM [inhibitor, single point]"
Nc1ccc(Oc2ccc(N)cc2)cc1,Potency,[5],"inconclusive: 24.5 µM [rising, full curve, poor fit]"
same,Potency,[6],"inconclusive: 24.9 µM [cytotoxic, single point]"
same,"ratio activity, negative = inhibition",[7],inconclusive: 2.5% [at 80.4 µM]
same,Potency,[8],"inconclusive: 21.9 µM [cytotoxic, partial curve, poor fit]"
same,Potency,[9],"inconclusive: 62 µM [activator, partial curve, poor fit] and inconclusive: 68.6 µM [activator, partial curve, poor fit]"
same,Potency,[10],inactive
same,Potency,[11],"inconclusive: 55.3 µM [fluorescent, partial curve]"
same,Potency,[12],"active: 62 µM and inconclusive: 68.6 µM [activator, single point]"
CCOC(=O)NC(O)C(Cl)(Cl)Cl (stereo not drawn),Potency,[13],inactive
same,Potency,[4],"inconclusive: 0.001 µM [inhibitor, full curve, poor fit]"
COC(=O)COc1ccc(Cl)cc1Cl,Potency,[14],inactive
same,Potency,[15],inactive
same,Potency,[16],"inconclusive: 34.4 µM [inhibitor, partial curve, poor fit]"
same,Potency,[10],"inconclusive: 1.6 µM [cytotoxic, single point]"
same,Potency,[17],inactive
same,Potency,[18],"inconclusive: 61.1 µM [rising, partial curve, poor fit]"
same,Potency,[4],inconclusive: 79.6 µM [inhibitor]
ClC(Cl)=C(c1ccc(Cl)cc1)c1ccccc1Cl,Potency,[19],active: 24.5 µM
same,Potency,[10],"inconclusive: 127 µM [cytotoxic, single point]"
same,Potency,[2],"inconclusive: 54.9 µM [cytotoxic, single point]"
same,Potency,[3],"inconclusive: 54.9 µM [cytotoxic, single point]"
same,Potency,[17],"inconclusive: 54.9 µM [cytotoxic, single point]"
same,Potency,[18],"inconclusive: 77 µM [cytotoxic, single point]"
Cc1ccc(O)c(C)c1,Potency,[5],"inconclusive: 24.2 µM [cytotoxic, full curve] and inactive"
same,Potency,[20],inactive
same,Potency,[6],inactive
same,Potency,[8],"inconclusive: 54.2 µM [rising, partial curve, poor fit]"
same,Potency,[12],"inconclusive: 60.3 µM [activator, partial curve, poor fit]"
same,Potency,[4],"inconclusive: 88.1 µM [inhibitor, single point]"
N#Cc1c(-c2ccc(Cl)cc2)[nH]c(C(F)(F)F)c1Br,Potency,[19],"inconclusive: 13.8 µM [cytotoxic, partial curve]"
same,Potency,[15],"inconclusive: 1.22 µM [cytotoxic, full curve]"
same,Potency,[3],active: 6.92 µM
same,Potency,[17],active: 1.1 µM
same,Potency,[11],inconclusive: 27.3 µM
CSc1nc(N=[N+]=[N-])nc(NC(C)C)n1,Potency,[14],"inconclusive: 68.6 µM [cytotoxic, single point]"
same,Potency,[20],inactive
same,Potency,[6],"inconclusive: 9.77 µM [cytotoxic, partial curve, poor fit]"
same,"ratio activity, negative = inhibition",[7],inconclusive: -6.91%
same,Potency,[15],"inconclusive: 0.217 µM [cytotoxic, single point]"
same,Potency,[2],"inconclusive: 38.9 µM [cytotoxic, partial curve]"
same,Potency,[3],"inconclusive: 43.6 µM [cytotoxic, partial curve]"
same,Potency,[17],"inconclusive: 38.9 µM [cytotoxic, partial curve]"
same,Potency,[12],active: 61.1 µM
CCCCCCCCCCCC(=O)O,Potency,[14],inactive
same,"viability change, negative = cytotoxic",[6],inconclusive: -32.7% [cytotoxic]
same,Potency,[8],"inconclusive: 7.06 µM [cytotoxic, full curve, poor fit] and inconclusive: 5.49 µM [cytotoxic, full curve]"
same,Potency,[13],"inconclusive: 24.5 µM [cytotoxic, partial curve, poor fit]"
same,Potency,[19],"inconclusive: 35.4 µM [cytotoxic, partial curve] and inconclusive: 38.9 µM [cytotoxic, partial curve]"
same,Potency,[4],"active: 79.9 µM and inconclusive: 145 µM [inhibitor, single point] and inactive"
COC(=O)c1ccccc1CS(=O)(=O)NC(=O)Nc1nc(OC)cc(OC)n1,Potency,[20],inactive
same,Potency,[8],inactive
same,"viability change, negative = cytotoxic",[13],inconclusive: 12.5% [cytotoxic]
same,Potency,[4],"inconclusive: 35.6 µM [inhibitor, single point]"
Nc1cc(Cl)ccc1O,Potency,[1],active: 26.4 µM
same,Potency,[5],"inconclusive: 59.6 µM [rising, single point]"
same,Potency,[20],inactive
same,Potency,[6],"inconclusive: 0.15 µM [cytotoxic, full curve, poor fit]"
same,Potency,[13],inactive
same,Potency,[19],"inconclusive: 7.51 µM [cytotoxic, single point]"
same,activation,[9],inconclusive: 4.82% [phenotype inactive]
same,Potency,[3],"inconclusive: 53.2 µM [cytotoxic, partial curve, poor fit]"
same,Potency,[11],"inconclusive: 14.9 µM [rising, full curve]"
same,Potency,[12],"inconclusive: 29.6 µM [activator, partial curve]"
